The chains are these.
B1: OR4K15 (parent)
chain: GUUAACGGUCAUAGGCCAUGGAAACUAGGAGCACCAUUUCGCUGCCAGUGAAGAAAUGAACAAAGAAAAUCUGGGCCAGGCAGGCAUCAAAAGAAAUAGUCUUGCGCUCAACCAGAAAGUCUGUAAUCAUUUUAAGGGUA

The source gives no read counts; variants with many changes may rest on few reads.

This data set covers variants of B1. As to the kind of experiment: self-cleavage, relative activity (ratio to wild type); higher = more cleavage; in vitro, sequencing; the parent is a self-cleaving ribozyme.
With U9A A23G A24G A47G A82U, the self-cleavage came to 0.32.

Take G7U U43C A82U U108A A135U: the self-cleavage stood at 0.01.

Take U9A A51G G53A U57A: the self-cleavage is 1.18.

As to U9C U97A U100C U132C, the self-cleavage came to 1.48.

With U9A U70C A95G, the self-cleavage stood at 1.25.

As to U9A U39C A52G A78U U103C, the self-cleavage turned out to be 0.23.

With U9C A36G A91G, the self-cleavage is 1.77.

Turning to G8A A24G A64G A126G, the self-cleavage came to 1.05.

On to U9C G31A A69U, for which the self-cleavage came to 1.07.

U9C C85U A129G: the self-cleavage was found to be 1.

On to U9A C40A A56G A62G, for which the self-cleavage was 1.04.

Take U9C A89G U127C: the self-cleavage was determined as 0.73.

On to G7U A33G U43C A135G, for which the self-cleavage worked out at 0.66.

On to U9C U100C A129G U131C, for which the self-cleavage was determined as 2.1.

For U9C C16A U108C A125G U127C, the self-cleavage stood at 0.

For the variant G8A U12A A13G U97C, the self-cleavage was 1.61.

For the variant U9C A52G A111G A114G, the self-cleavage amounted to 0.

For the variant U9A U70A U72G, the self-cleavage came to 0.42.

In the case of G8U A22G G80A A91G, the self-cleavage was 0.25.

Turning to U9C A52U A59G, the self-cleavage stood at 1.87.

With U9C U70A U122C, the self-cleavage came out at 0.54.

Turning to U9C A30U A68U, the self-cleavage was 1.12.

With U9C U43C A90G C109U, the self-cleavage amounted to 0.54.

For the variant U9C A13G A22G U102A, the self-cleavage was 0.47.

As for U9C A59U A91G, the self-cleavage stood at 1.08.

Turning to U9A A47U A51G A67U U97C, the self-cleavage is 0.29.

On to U9C A30G C85A, for which the self-cleavage amounted to 1.17.

In the case of U9C A13G U19A A67G, the self-cleavage stood at 1.16.

On to G7U A47U A91G, for which the self-cleavage came to 0.81.

For the variant U9A A33G A110C, the self-cleavage is 0.11.

As to U9A U38C A52G, the self-cleavage was found to be 0.91.

Consider U9C U43C A47C, for which the self-cleavage is 0.93.

For the variant U9A A30U U87A U122C, the self-cleavage was 1.08.

Take G7U A30G U39C A55G A69G A89G: the self-cleavage was 0.44.

For U9C A55U A118G, the self-cleavage came out at 0.7.

With U9C U37C U57C G74U A98G U108C, the self-cleavage turned out to be 0.01.

With U9C A60G C105U U132A, the self-cleavage was 0.35.

As to G8C U43C C71G A91G, the self-cleavage was found to be 0.59.

In the case of U9C A60G A62U U108A U132G, the self-cleavage was determined as 0.05.

As for U9C A59G U139C, the self-cleavage is 1.51.

For the variant U9C A22U A67G U72C A82G, the self-cleavage was 0.33.

Regarding U9C U103G A111U A117U, the self-cleavage came out at 0.01.

As to U9C A47C A125G, the self-cleavage was found to be 0.72.

Regarding U9C C40A A63U G83A A135G, the self-cleavage was 2.

For the variant U9C U37C A92U U130C, the self-cleavage turned out to be 1.95.

Consider U9C G75A U127C U130A, for which the self-cleavage worked out at 0.13.

U9C U12C A91U: the self-cleavage was found to be 1.54.

In the case of U9C U72C A94G U130C, the self-cleavage was determined as 0.06.

For the variant U9C A54G G75A G138A, the self-cleavage is 0.21.

On to U9A A22G U57A A91G C121U, for which the self-cleavage turned out to be 1.45.

As to U9A U12A U39A A62G, the self-cleavage came out at 0.91.

For the variant U9C U57C U122C, the self-cleavage stood at 1.2.

With U9C G15A A27G A78G C109A U124A, the self-cleavage was found to be 0.

For the variant U9C U26C U57C A67G A68G A86U, the self-cleavage stood at 0.83.

G8C A82G U102C U108C: the self-cleavage came out at 0.1.

Take U9C U12G A68G U87C: the self-cleavage came to 1.52.

U9C U100C U122A: the self-cleavage is 2.23.

For the variant U9C U57C A117G, the self-cleavage was 1.58.

Take U9C A22U G31C A51G U122A: the self-cleavage came to 2.17.

As to U9C A89U A94G, the self-cleavage stood at 1.74.

Take U9C U19C U43A A67G U100C: the self-cleavage was 2.07.

Consider U9C A68G A114G, for which the self-cleavage stood at 1.68.

Regarding U9C A47U A51G, the self-cleavage came out at 1.15.

As for U9G A52G U72A, the self-cleavage worked out at 0.3.

For the variant U9A A18U A33G U57G G83A A89G A91G U122C, the self-cleavage stood at 0.75.

On to U9C A63G A111G, for which the self-cleavage turned out to be 0.03.

Regarding U9C A11G G74A U133C, the self-cleavage was determined as 0.38.

U9C A23G A51G U70C: the self-cleavage was found to be 1.55.

Regarding U9C U37A A68G A78G, the self-cleavage was determined as 0.53.

In the case of U9C U39G U70A, the self-cleavage was found to be 0.2.

Regarding U9C A89G A98G A126G U130C U131C, the self-cleavage came out at 0.26.

U9C A90G U120A: the self-cleavage worked out at 0.84.

Regarding U9C A36U A78G U87C U102C, the self-cleavage was found to be 0.49.

Regarding U9C A69G A95G A114U A118G, the self-cleavage came out at 0.05.

In the case of U9C A13U A23G A67G U100C, the self-cleavage came to 1.16.

Take U9C A54G A62U: the self-cleavage amounted to 0.55.

Consider G7U A30G U37C A89G, for which the self-cleavage was found to be 0.82.

Take U9A U12C A55G A62U A114G: the self-cleavage came out at 0.11.

With U9A U87C A126G, the self-cleavage is 0.89.

In the case of U9A A60G A82C U133C, the self-cleavage was 0.18.

For U9A C40A U120C, the self-cleavage was found to be 0.27.

Turning to U9C A51G A54G A60U U108C A111G, the self-cleavage stood at 0.04.

Consider U9C U102A A111G, for which the self-cleavage stood at 0.02.

With U9C U12C A23G A78G, the self-cleavage is 0.59.

The values above are taken from the RNAGym collection of RNA variant scans (doi:10.7554/elife.90254).
